Results reported in patent CN111875700A (CUSABIO BIOTECH CO LTD, dated 2020).

Target: T1, SARS-COV-2病毒N蛋白 (nucleocapsid protein) (SARS-COV-2)
T1 construct: Recombinant N protein; also called 核衣壳蛋白
Assay: ELISA, N protein coated at 2 μg/ml on the microplate

B1: 1A6重组抗体 (1A6 single-chain antibody fused to human IgG1 Fc fragment) (Fc fusion)
chain: EVKLKESGAELVKPGASVKLSCTASGFNIKDTYMHWVKQRPGQGLEWIGYINPSTGYTEYNQKFKDKATLTADKSSSTAYMQLSSLTSEDSAVYYCARDALGWYFDVWGAGTLVTVSTGGGGSGGGGSGGGGSDVVMTQSHKFMSTSVGDRVSVTCKASQNVGTNVAWYQQKPGQFPKALIYSASYRYSGVPDRFTGSGSGTDFTLTISNVQSEDLAEYFCQQYNSYPLTFGAGTKLEIK[letters of human IgG1 Fc not shown]
notes: also called 1A6 recombinant antibody
- EC50: 1.34 ng/mL
